This is an account of results in paper PMC7432475, “β-Carbolines in Experiments on Laboratory Animals” (International Journal of Molecular Sciences, 2020).

Read-outs that look alike come from different tables or passages of the source.

The conditions of the data set: rat, in vivo, in 100g, stage I. How it is done:
The experiment was conducted in the animal housing facility at the Institute of Human Nutrition and Dietetics, Poznań University of Life Sciences, under conditions of natural light and with the temperature maintained during the experiment at 19–22 °C, and with a relative humidity of 55–60%. Seventeen-month-old male Sprague Dawley rats originating from a Charles River Laboratories farm were used in the experiment. The age of the rats corresponded to 51 years of human life. For the first ten days of the experiment (the adaptation period), the rats were fed ad libitum with a standard laboratory diet and water. The experiment was conducted in two stages. In the first stage, after acclimatization, the animals were randomly divided into seven groups (n = 6 each). The control rats were fed the AIN-93M rodent diet. […] There were no differences in body weight between the groups at the beginning of either stage of the experiment. All rats were provided ad libitum diet and water for the fourteen weeks of both experiments. The food consumption of the individual rats was monitored daily by measuring the difference between the amount of diet supplied each day and the amount of diet remaining. Feces were collected for ten days in the seventh week of the experiment, and water content, protein, fat, dietary fiber, and ash were determined using standard analytical methods. Body mass was measured every seven days using an electronic balance. […]
The total dietary (TDF), soluble (SDF), and insoluble (IDF) dietary fiber content of the experimental diet, defatted prior to analysis, were determined following a method described by Asp, Johansson, Hallmer, and Siljeström. […] Fat content was measured after extracting 5 g with petroleum ether in a Soxtec Avanti 2055 apparatus (FOSS Tecator AB, Höganäs, Sweden). […] Samples of 2 g were dried in an automatic air exchange dryer at 130 °C until constant weight, expressed as g/100 g of feces. […] The average ash content was calculated as g/100 g of feces.

On to `Cc1nccc2c1[nH]c1ccccc12` [H, harman], for which the “IDF [g] (insoluble dietary fiber) in feces” value by setting is: (group H1 (10 µg H/kg diet)) 55,21 g; (group H2 (15 µg H/kg diet)) 56,86 g; (group H3 (20 µg H/kg diet)) 54,91 g.
